Laboratory results published in the supplement of paper PMC3334620.
In all, about 33,000 sequences were measured (“E-score (-0.5 to 0.5)”: median about -0.012, highest 2% from about 0.27 on). Some of the results follow.

Molecular target: T1, Vhr1 (UniProt P40522)
T1 sequence: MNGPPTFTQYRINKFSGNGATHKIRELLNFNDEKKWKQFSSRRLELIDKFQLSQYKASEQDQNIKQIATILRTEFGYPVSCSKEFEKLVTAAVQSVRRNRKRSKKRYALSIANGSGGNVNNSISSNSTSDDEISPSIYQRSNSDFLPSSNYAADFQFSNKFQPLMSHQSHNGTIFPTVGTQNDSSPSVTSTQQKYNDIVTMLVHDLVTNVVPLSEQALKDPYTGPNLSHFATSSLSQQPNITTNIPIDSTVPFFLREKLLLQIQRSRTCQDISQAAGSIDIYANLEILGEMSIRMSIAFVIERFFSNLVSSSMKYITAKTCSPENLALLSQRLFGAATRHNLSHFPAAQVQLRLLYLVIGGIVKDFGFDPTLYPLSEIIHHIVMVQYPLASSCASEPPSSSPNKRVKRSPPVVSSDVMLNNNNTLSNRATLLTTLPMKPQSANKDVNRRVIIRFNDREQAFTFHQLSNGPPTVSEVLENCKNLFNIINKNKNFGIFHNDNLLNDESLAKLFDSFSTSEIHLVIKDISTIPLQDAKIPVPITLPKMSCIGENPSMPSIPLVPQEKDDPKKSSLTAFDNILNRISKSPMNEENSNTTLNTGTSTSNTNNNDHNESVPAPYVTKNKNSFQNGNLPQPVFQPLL
Assay: PBM E-score (8-mer binding enrichment) (E-score (-0.5 to 0.5)); higher = stronger / more preferred TF binding; most listed sequences are background and not binding sites
Details: protein concentration: 200 nM; construct: GST-full length
Summary of the method: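 Full-length yeast transcription factors or their DNA-binding domains, GST-tagged and expressed with PURExpress, were applied at about 100-200 nM to universal all-10-mer Agilent arrays. These arrays had been made double-stranded by primer extension on fresh or once-stripped slides. Detection used fluorescent anti-GST, normalisation used masliner, and E-scores for ungapped eight-base words pooled with reverse complements came from the Universal PBM Analysis Suite.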

Sequence | PBM E-score
CGAGCCCG | 0.167
ACGAGGAG | -0.113
AAGTGGGC | -0.00962
AAAAGTTT | -0.116
CGACCTCA | 0.018
CCCTACGA | 0.051
ATGAACCA | 0.294
ATCAGCAT | 0.123
CCCAGAGA | -0.101
AATATACC | 0.121
ACCATACC | 0.205
CATGTGTC | 0.22
TAAATATA | 0.207
ACTGGCCT | -0.135
GCTTGGCA | -0.106
ACGACAAG | 0.0631
GACAGTCC | -0.0807
CTTCGAGA | -0.201
GTCAAAAA | -0.206
AAAGTGAC | 0.0798
CCTAGTCA | 0.309
AGGTACGG | -0.18
ACAGGCGG | -0.0294
CAGAGTAG | 0.0847
ATGACATG | 0.0843

Sequence | PBM E-score
CGCTGATA | -0.24
ACGGCTGG | -0.0635
TAACTGAA | 0.0328
TTAGAAAA | -0.244
ACTTTTCG | -0.158
CTGAGCTA | -0.184
GCAGTGCA | 0.0468
ACCACGGA | -0.0454
CACTTGTA | -0.0274
GTCAGCTA | 0.125
GTATGGCA | 0.0524
CAGTATCA | -0.0094
ATGCCACG | -0.178
CAGTTCAC | -0.0289
AGAGGCAC | -0.0437
CACACAAA | 0.124
GTGCGCGA | 0.0151
ATTAACAG | -0.00382
ATATTGTG | 0.198
ATGCAGAA | -0.0273
GCAGTAAA | -0.202
AGTTTTCC | -0.0724
AGCTTAAC | -0.226
GCTGGCTA | -0.00876
CCAGCGGG | 0.0637

Sequence | PBM E-score
ATATGTAG | 0.0522
AAAACACG | -0.0652
ATGTGCAG | -0.105
CCTAGGGC | -0.231
ATTATTAC | 0.123
CATGAATG | 0.231
ATATCATG | 0.152
CCTTCTAA | -0.156
CGAATACA | 0.116
CTATGCTC | -0.0112
ATTAGGGA | -0.0413
AAACGCTG | -0.293
AAGGTGTC | 0.0328
ACGGTAGT | 0.125
AATAGGGG | 0.00726
CGCAGGAG | 0.089
GCCCACAC | 0.069
TGCGGCAA | -0.104
GTAACCAC | -0.00779
CATACTTC | -0.111
CTTCCTTC | -0.215
AGAAAGAT | -0.0756
CAGTGAGA | 0.00435
TCCAAACA | -0.19
CGCTTTTC | -0.123

Sequence | PBM E-score
GACAAGAC | 0.16
AACGTTGT | -0.0929
CGAAGACG | -0.113
CGATGTGA | 0.184
ATACCTGG | -0.129
ATCTTGAA | 0.00637
AGGGTACA | 0.0556
ACAGGGTC | 0.133
CGTCTTAA | -0.254
GTTTATGA | -0.0401
CTCTGGCA | -0.0993
CTTTTACC | -0.0677
TTCTTCAA | -0.189
AATCAGCC | 0.14
TAAGATAA | -0.0467
CTGTTGTC | 0.00208
AAAACGGC | 0.0186
CGGAACAA | -0.0228
CGTGGGCC | -0.192
AGCAAAAT | -0.0763
CTGGACGA | -0.0855
AGCTTCTC | -0.00946
GGTGGCGA | 0.0497
CACATACC | 0.0701
GAACTTAC | -0.175

Sequence | PBM E-score
GTCACGAA | 0.252
CGGACAAA | -0.101
AGTCGGTC | 0.0847
AATGTTAC | -0.114
CGGTCTTA | -0.172
CAAAATAA | 0.0241
ACGTCCTC | -0.207
AGATACGC | 0.132
CACATATC | 0.194
ATCTGAGA | -0.124
ATTCTACC | -0.0608
GATGACCA | 0.13
ATACAAGC | 0.143
CGACTGGC | 0.134
ACTTTATA | -0.108
ACATGTGA | 0.0459
CAGGGTGG | 0.213
CTGTTGAC | -0.194
GTCAGGGA | 0.182
GCTCGGTA | -0.0594
AGCATAAC | -0.0434
TACGGATA | 0.0669
ATTGACTC | 0.3
ATGTTCGA | 0.0207
CTTTGTCA | -0.0991

Sequence | PBM E-score
ACCGCAAG | 0.01
GCTTGAAA | -0.118
GCGCTTCC | -0.104
ATAACGTC | -0.156
GGCAGACA | -0.0678
GCCCCAAA | -0.169
TCGCTTCA | -0.172
AATACACC | 0.0607
CGACCTAG | 0.147
GATCATAC | 0.114
AGGAATGG | -0.0959
AGACTTCC | -0.161
ACGTGCCC | -0.0998
GCCGCCCA | 0.128
GACTGCCA | 0.168
AGTCAAAG | 0.0566
ACGCACAA | -0.0344
AATGAAGG | -0.132
CCTAGAGC | -0.125
CACGCCTA | -0.125
CGGATTAC | -0.0575
GGCTTTCA | -0.112
GTTTCACA | -0.102
CGTTGGAG | -0.158
TCTCTACA | -0.0384

Sequence | PBM E-score
GCGGTCCC | -0.0911
CAGAGAAC | -0.126
TTAGGGAA | -0.185
AGGCACGA | -0.0194
ATGAAAGC | -0.0896
CCTCGATA | 0.127
AGTCTGGA | 0.0514
AACAAACG | -0.0504
GCTTCCTA | -0.225
CGCAACGC | -0.0215
GCGCACAC | -0.0469
CAGATTTC | -0.0565
ACAGTTTA | -0.101
CAAGTCAC | 0.284
GAGCACCC | -0.0139
GGGGATAC | -0.044
CCTGTAGC | -0.219
CTCTGGGC | -0.164
GCCTTAAC | -0.199
CTTGTGCA | 0.00015
AGAGCGTA | -0.135
TACGATGA | 0.11
